The list shows a part of the results. Values were computed here from the reads of four pooled replicates and scatter widely.
target: T1, Pho4 (S. cerevisiae) (UniProt P07270); assay: relative binding free energy (BET-seq); higher = weaker binding; details: reference: library average
T1 sequence: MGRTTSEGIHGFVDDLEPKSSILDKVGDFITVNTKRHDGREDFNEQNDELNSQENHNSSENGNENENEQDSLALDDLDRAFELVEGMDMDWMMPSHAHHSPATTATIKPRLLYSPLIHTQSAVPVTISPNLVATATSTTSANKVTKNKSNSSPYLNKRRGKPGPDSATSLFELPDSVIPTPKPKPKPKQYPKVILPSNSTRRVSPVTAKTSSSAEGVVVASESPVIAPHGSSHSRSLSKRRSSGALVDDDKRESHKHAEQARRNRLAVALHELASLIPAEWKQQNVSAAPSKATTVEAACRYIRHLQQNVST

Sequence | relative binding free energy [kcal/mol]
GGTGGCACGTGATGGT | 0.12
TCAGTCACGTGTCGGG | 0.17
GGATGCACGTGAGCGG | 0.24
AGGAACACGTGTATAT | 0.09
GGGCGCACGTGTTCTT | 0.07
CGGGGCACGTGTGCTG | -0.12
CGTGTCACGTGTCTGT | 0.11
TTGAGCACGTGTGCGT | -0.05
AGGAACACGTGGGCGG | -0.04
TAGAACACGTGATTGG | 0.09
ATTGGCACGTGTCGCG | -0.05
ACTTTCACGTGTTAGG | 0.16
TTATGCACGTGCTATG | -0.24
TCGGGCACGTGGCGGA | -0.23
GGTTACACGTGCGTAT | 0.06
GGTTTCACGTGATGGC | 0.58
AATTACACGTGGATTG | 0.24
AGCTTCACGTGTTTGA | 0.15
CTTGGCACGTGCAGTA | 0
TGTCACACGTGGGATT | -0.08
AGTCACACGTGGGTAT | -0.06
TGGATCACGTGCGTTG | 0.13
TTGCGCACGTGTGGTG | -0.16
GAATACACGTGGGGTT | -0.02
AGCGACACGTGGGTGT | -0.22

Sequence | relative binding free energy [kcal/mol]
AGTGGCACGTGTCAGG | -0.21
TAGCGCACGTGATGTG | -0.06
TGCTTCACGTGCATTT | 0.22
AACAACACGTGGTTGT | 0.04
ATGATCACGTGGTGTT | 0.11
CACGGCACGTGGTGGG | -0.2
TGAGACACGTGTTTTG | 0.11
TTGGACACGTGTGTCT | 0.11
TCATGCACGTGTAGAG | 0.18
GGTATCACGTGGGAAT | 0.08
AGGCGCACGTGGTATG | -0.16
TTCTTCACGTGATCGT | 0.21
GGAAACACGTGGGGAG | -0.12
TGTCTCACGTGGGTTT | 0.17
AGGGCCACGTGGTGAA | -0.26
GAGCTCACGTGGGTTT | 0.1
GGGCGCACGTGTGGTT | -0.12
TTGCTCACGTGTTTGC | 0.21
GTTTGCACGTGGCGGA | -0.07
CTATACACGTGTAGGG | 0.14
AGGAGCACGTGAGGTA | 0.2
GCTTCCACGTGTTGGG | 0.12
GCAAGCACGTGGGGGG | -0.17
AGGGGCACGTGGGCGA | -0.23
TGGCTCACGTGTTGCA | 0.28

Sequence | relative binding free energy [kcal/mol]
TATTTCACGTGCTTGC | 0.24
GGATTCACGTGTGAAG | 0.39
ATTGTCACGTGAGCGA | 0.16
AATTGCACGTGTGCGA | -0.04
TTGGACACGTGTAAGA | 0.15
ATTATCACGTGGATTG | 0.12
TTTGGCACGTGCCAGG | -0.12
TGGTACACGTGAGGTC | 0.42
TATTGCACGTGGTTGA | 0.02
TGGTTCACGTGAAAGT | 0.27
TTCTTCACGTGTATAT | 0.33
GAGGGCACGTGGGATT | -0.14
AATCCCACGTGTTGGT | 0.06
ATGTGCACGTGGGTTG | -0.08
AGTATCACGTGGGTGG | -0.02
TGTGTCACGTGGGAGT | -0.01
TGGGACACGTGCTGGC | -0.02
GTCATCACGTGTTGAG | 0.23
AGTGACACGTGCAGGT | -0.08
TTTAGCACGTGCGTTA | -0.13
CTGGGCACGTGCGGCG | -0.1
GTGGACACGTGTGTAT | 0.18
ATTGTCACGTGCATTG | -0.03
TTGGACACGTGAGGTG | 0.27
AGGTACACGTGTTGCG | 0.02

Sequence | relative binding free energy [kcal/mol]
AGTAGCACGTGTTCAA | 0.06
GGGGACACGTGAAGTG | 0.15
TTGAGCACGTGCTTTG | -0.15
GTATTCACGTGATGAA | 0.27
ATGGCCACGTGAGGGA | 0.04
TACGACACGTGAGGGG | 0.2
TGGAACACGTGGAAAG | 0.31
CGGTGCACGTGATAAG | 0.04
TTCAGCACGTGGGAAT | -0.18
ATGTCCACGTGTGGGT | 0.05
TTATGCACGTGCGATG | -0.04
ATAATCACGTGGTTGA | 0.2
AAAATCACGTGAGCGG | 0.56
TGTCTCACGTGTTAGT | 0.13
TGGGACACGTGTCCGG | -0.04
TCGTGCACGTGGGAGG | -0.12
TTTTTCACGTGATTCA | 0.31
ATTTTCACGTGGCAGG | 0.19
ATTTTCACGTGTGCAG | 0.2
ATTGCCACGTGGGTTC | -0.18
CTGTTCACGTGAAGGT | 0.36
ATCGCCACGTGGGTGG | -0.26
GTGGGCACGTGAAGGC | 0.31
CGGGGCACGTGGCGGT | -0.2
CAGTGCACGTGAGGTG | 0.16

Sequence | relative binding free energy [kcal/mol]
TACGTCACGTGCTGTG | 0.11
TTGTTCACGTGCCATG | 0.24
TTAGTCACGTGGTGAG | -0.02
TTGGTCACGTGTCTTC | 0.13
TCAGGCACGTGGGTTT | -0.1
TTCGACACGTGTATGG | 0.04
TGGGGCACGTGATCAG | -0.02
AAGAGCACGTGGTTAG | -0.17
TATTCCACGTGGGTTA | -0.04
CGGGGCACGTGGCTGG | -0.21
AGATGCACGTGAAGTA | 0.34
GTCGACACGTGGTGGG | 0.05
CTTGTCACGTGTTTTA | 0.2
TGACTCACGTGTGGGC | 0.27
TATATCACGTGGTTAA | 0
TCGGACACGTGCGGGG | -0.17
TCGGTCACGTGCAGGT | 0.05
TTGTGCACGTGGATCT | 0.01
AACGGCACGTGAAGGT | 0.23
GTTAGCACGTGTTTAA | -0.12
AGAATCACGTGTAGGT | 0.15
AAGGACACGTGGGGAT | -0.08
GGGGACACGTGTAAGA | 0.19
TCCATCACGTGGGGGT | 0.13
GGTGCCACGTGGCTGT | -0.11

Sequence | relative binding free energy [kcal/mol]
GTAGTCACGTGGAGGG | 0.15
ATTGGCACGTGGTTCA | -0.1
ATTCTCACGTGGTGGC | 0.19
TATGTCACGTGGGTTG | 0.01
TCAATCACGTGTGTGG | 0.08
TCTTGCACGTGGTGTT | 0.01
ACGGGCACGTGGTGTG | -0.3
TGATACACGTGGTGGT | -0.03
GGTAGCACGTGAGCGT | 0.25
AGTGGCACGTGGGGGG | -0.18
AATGTCACGTGTTGGG | 0.14
ACTAGCACGTGGTATG | -0.16
AGGATCACGTGAGAGT | 0.51
CAAGGCACGTGCGGCG | -0.02
AGGGTCACGTGGGCCG | -0.12
TGGTCCACGTGTATTG | 0.06
GAAGGCACGTGAGGCT | 0.09
GCGGGCACGTGTGTGG | -0.07
TTCTGCACGTGAGTAA | 0.3
GGGCGCACGTGCATTG | 0.08
AGTTTCACGTGTAGCT | 0.22

From the BET-seq Pho4 binding data (Le et al. 2018)
